Assay results reported in PubChem BioAssay AID485344 (National Center for Advancing Translational Sciences (NCATS), 2010).
The whole screen tested about 340,000 compounds, of which about 6,900 (2%) were called active. No stated cut-off is given here; in the data, active means inhibition above about 30%; inactive means below that, where a call was filed. The list shows a part of the results, in another mix than the full data. The source gives no active or inactive call for entries shown without one.
Further: 0% is about no effect.

What follows are molecules tested against D(2) dopamine receptor (Homo sapiens) (UniProt P14416) (assay: HTS Assay for Allosteric Antagonists of the Human D2 Dopamine Receptor: Primary Screen for Antagonists). Conditions: HEK293 TREx D2 cells, calcium flux, dopamine EC80; at 10 µM; stronger effect = higher value.
Chain of UniProt P14416 (P14416 whole entry, looked up): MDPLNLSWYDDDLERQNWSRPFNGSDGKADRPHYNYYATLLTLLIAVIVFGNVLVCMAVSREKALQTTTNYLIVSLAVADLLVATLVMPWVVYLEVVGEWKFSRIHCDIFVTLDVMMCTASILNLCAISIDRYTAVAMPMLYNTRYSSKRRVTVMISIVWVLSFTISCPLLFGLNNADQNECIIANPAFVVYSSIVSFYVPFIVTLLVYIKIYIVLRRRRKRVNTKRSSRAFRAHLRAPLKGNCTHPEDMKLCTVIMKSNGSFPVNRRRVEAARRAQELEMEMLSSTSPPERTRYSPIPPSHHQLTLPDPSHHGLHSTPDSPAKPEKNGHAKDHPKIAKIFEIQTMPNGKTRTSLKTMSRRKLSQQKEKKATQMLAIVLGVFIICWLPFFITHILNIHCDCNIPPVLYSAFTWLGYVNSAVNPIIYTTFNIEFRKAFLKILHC
In short: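 Dopamine at EC80 is the agonist stimulus; test compounds precede it by 180 s. Calcium flux read kinetically in a force-coupled, inducible HEK293 T-REx D2 cell line.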
`COc1ccc(N(CC(=O)NCCc2ccccc2)S(=O)(=O)c2ccc(OC)c(OC)c2)cc1` showed an inhibition of 20.1%.
Work on `O=C(C1CCCN(S(=O)(=O)c2cccc3nonc23)C1)N1CCN(c2ccccc2Cl)CC1` (centres undefined) yielded an inhibition of 14.4%.
With `Cc1ccccc1NC(=O)c1c(C)oc2ccc(O)c(CN3CCC(C)CC3)c12` the inhibition was 27%.
`CCCOc1ccc(C(=O)Nc2ccc3nn(-c4ccc(OC)c(Cl)c4)nc3c2)cc1` gave an inhibition of -13.3%.
Work on `COc1cccc2c1Oc1nc(-c3ccccc3)nc(SCC(=O)Nc3ccccc3)c1C2` yielded an inhibition of -23%.
For `CCOc1ccc(-c2nnc(SCC(=O)Nc3cc(F)ccc3F)o2)cc1`, the inhibition was 14.5%.
Work on `COCCCNC(=O)c1ccc(Cn2c(=O)c3ccccc3n(Cc3ccccc3C)c2=O)cc1` yielded an inhibition of -19.7%.
In the case of `CCOC(=O)Cn1c(=O)oc2cc(S(=O)(=O)N3CCN(c4ccccc4OC)CC3)ccc21`, the inhibition is reported as 9.65%.
For `CNC(=O)CSc1nnc(COc2ccc([N+](=O)[O-])cc2)n1C`, the inhibition was active: 75.9%.
`COc1ccc(CNC(=O)c2ccc(NC(=O)N3CCSc4ncccc43)cc2)cc1OC` was tested, and the inhibition was 2.7%.
For `COc1ccc(OC)c(-c2noc(N3CCN(c4ccc(C(C)=O)cc4)CC3)n2)c1`, the inhibition was 15.2%.
`CCOC(=O)c1c(NC(=O)CCCOc2ccc(Cl)cc2)sc2c1CCC2` was tested, and the inhibition was -3.16%.
`Cc1ccc(C(=O)NCCN2C3=NC[C@@H](Cc4ccccc4)N3C[C@H]2Cc2ccc(O)cc2)cc1Br` was tested, and the inhibition was active: 68.1%.
`COc1ccc(OC)c(NC(=O)Cn2ccn(-c3ccc(OC)c(OC)c3)c(=O)c2=O)c1` showed an inhibition of 8.4%.
In the case of `CCc1ccc(NC(=O)Nc2ccccc2OCc2cc(=O)n3ccccc3n2)cc1`, the inhibition is reported as 3.53%.
Molecule `CCOC(=O)c1cc(-c2ccc(OC)c(S(=O)(=O)NCc3ccccc3Cl)c2)on1` has an inhibition of -2.3%.
In the case of `O=C(Cn1cnc2ccccc2c1=O)N1CCN(Cc2ccc3c(c2)OCO3)CC1`, the inhibition is reported as active: 55.2%.
Molecule `O=C(CN1C(=O)C2(SCC(=O)N2c2cccc(F)c2)c2ccccc21)NCCc1ccccc1` (centres undefined) has an inhibition of -9.81%.
`O=C(NCCc1csc(-c2cccnc2)n1)c1ccccc1` was tested, and the inhibition was -7.89%.
For `C/C=C(/C)C(=O)Nc1cccc(C2=NOC3(C2)C[C@@H](C(N)=O)N(C(=O)CC)C3)c1` (some centres undefined), the inhibition was active: 43.4%.
`Cc1ccccc1C(=O)OCc1cc(=O)n2nc(C3CCCCC3)sc2n1` gave an inhibition of 5.88%.
With `COc1cc(C(CCN2CCCC2)c2c(OC)cc(OC)c3ccc(=O)oc23)cc(OC)c1OC` (centres undefined) the inhibition was active: 33%.
For `Cc1nnc2c(N3CCN(c4ccc(F)cc4)CC3)nc3ccc(C(=O)c4ccccc4)cc3n12`, the inhibition was -2.64%.
`COc1ccc(-c2nnn3c2nc(NCc2ccc(C)cc2)c2ccccc23)cc1` showed an inhibition of -19.2%.
With `Cc1cc(C)c(NC(=O)C(C)n2c(=O)cc(-c3ccccc3)c3c(C)nn(C)c32)c(C)c1` (centres undefined) the inhibition was 12.1%.
In the case of `O=C(COC(=O)C1(c2ccccc2)CC1)N1CCN(c2ccc(F)cc2)CC1`, the inhibition is reported as active: 35.5%.
Molecule `CC(=O)C1=C(c2ccc(F)cc2)N(C(C)=O)n2c(nnc2C2CCCCC2)S1` has an inhibition of 25.1%.
Molecule `CCOc1ccc(C(=O)NCC(c2ccc(Cl)cc2)N2CCCCC2)cc1` (centres undefined) has an inhibition of 6.21%.
With `Cc1c(N=c2scc(-c3ccccc3)n2C)c(=O)n(-c2ccccc2)n1C` the inhibition was active: 75.5%.
`COc1ccc(-c2onc(C)c2C)cc1S(=O)(=O)Nc1cccc(C#N)c1` was tested, and the inhibition was 4.03%.
For `CN(C)CCN(Cc1ccco1)C(=O)c1cc2c(s1)-c1ccccc1OC2`, the inhibition was 12%.
Work on `CCOC(=O)N1CCc2c(sc3c2c(=O)n(-c2ccc(F)cc2)c(=O)n3CC(=O)c2ccc(Cl)cc2)C1` yielded an inhibition of -10.8%.
With `CCc1ccc(NS(=O)(=O)c2ccc(-c3cc(C)no3)cc2)cc1` the inhibition was -7.38%.
Molecule `Cc1cccc(C(=O)NC2(C(F)(F)F)N=C(c3ccccc3)N(C3CCCCC3)C2=O)c1` (centres undefined) has an inhibition of 10.6%.
In the case of `CCOc1ccc(-c2cc(C(=O)NC(C)c3ccccc3)c3ccccc3n2)cc1` (centres undefined), the inhibition is reported as -3.8%.
For `CN1C(C(=O)c2ccccc2)=C(NC(=O)c2ccc(F)cc2)c2ccccc2S1(=O)=O`, the inhibition was -23.4%.
`O=C(Nc1ccc(C(=O)N2CCN(c3ccccc3F)CC2)cc1)c1nsc2ccccc12` showed an inhibition of 20.1%.
Work on `O=C(Cn1ncc2c3ccccc3n(Cc3cccc(Cl)c3)c2c1=O)NCCCN1CCCCC1` yielded an inhibition of 2.08%.
Molecule `CCOCCCNc1nc2c(S(=O)(=O)c3ccc(CC)cc3)nnn2c2ccc(Cl)cc12` has an inhibition of -8.76%.
`Cc1ccc(C)c(N2CCN(S(=O)(=O)c3ccc(-c4cnc(C5CC5)o4)cc3)CC2)c1` showed an inhibition of 7.45%.
`Cc1ccc(CNC(=O)Cn2c(=O)cc(C)c3c(C)nn(-c4cccc(F)c4)c32)cc1` gave an inhibition of 10.9%.
Molecule `Cc1ccc(NC(=O)CSc2nc(-c3cccs3)nc3cc(=O)[nH]n23)cc1C` has an inhibition of -8.85%.
`CCOc1ccccc1CN1CCc2nc(N3CCN(C)CC3)ncc2C1` gave an inhibition of -8.07%.
With `O=C(NCCc1ccccc1)C1CCN(Cc2cc3ccccc3n2Cc2ccccc2)CC1` the inhibition was -13.5%.
`Nc1c(C(=O)Nc2cccc(F)c2)nnn1-c1cccc(C(F)(F)F)c1` was tested, and the inhibition was -17.3%.
`Cc1cc(C)cc(NC(=O)c2sc3nc4n(c(=O)c3c2C)N=C(c2ccccc2)CS4)c1` showed an inhibition of 8.91%.
Work on `CCc1cccc(NC(=O)Cn2c(=O)n(CCC(=O)NCc3ccccc3Cl)c(=O)c3sccc32)c1` yielded an inhibition of -21.5%.
For `CCOC(=O)c1cc(C)n(CC2CCC(C(=O)Nc3cccc(Cl)c3)CC2)c1C` (centres undefined), the inhibition was -21.4%.
Work on `CCN(CC)c1ccc(NC(=O)CN2CCN(c3ccccc3OC)CC2)cc1` yielded an inhibition of -0.514%.
Molecule `Oc1c(C(c2ccccc2)N2CCOCC2)sc2nc(-c3ccco3)nn12` (centres undefined) has an inhibition of -15.8%.
In the case of `Cc1cccc(N2C(=O)CSC23C(=O)N(CC(=O)Nc2cccc(Cl)c2)c2ccccc23)c1` (centres undefined), the inhibition is reported as -1.17%.
For `COc1ccccc1-c1nn(-c2ccccc2)cc1C(=O)NCC(c1ccco1)N1CCCC1` (centres undefined), the inhibition was active: 40.4%.
Molecule `COc1ccccc1CCN1COc2c(cc3c(C)c(C)c(=O)oc3c2C)C1` has an inhibition of 0.884%.
For `O=C(NC1CCCCCC1)C1c2ccccc2C(=O)N1Cc1ccc(F)cc1` (centres undefined), the inhibition was 7.61%.
With `Cc1ccccc1OCCCCN1CCCCC1` the inhibition was active: 49.5%.
With `COc1ccc(CNC(=O)CN2C(=O)CSc3ccc(S(=O)(=O)N(C)C)cc32)cc1` the inhibition was 2.59%.
In the case of `CCOc1ccc(N2CC(c3nc4ccccc4n3CCCCOc3ccc(OC)cc3)CC2=O)cc1` (centres undefined), the inhibition is reported as 1.43%.
For `Cc1cc(=O)n2nc(N3CCC(C(=O)Nc4c(C)cccc4C)CC3)sc2n1`, the inhibition was -10.2%.
For `N#Cc1cnc(SCC(=O)Nc2ccccc2C(F)(F)F)nc1N`, the inhibition was active: 32%.
`COc1ccc(C2=C(C)C(=O)N(Cc3ccc(C(=O)NC(C)c4ccccc4)cc3)S2(=O)=O)cc1` (centres undefined) gave an inhibition of -15.4%.
In the case of `CCOc1ccccc1NC(=O)Cn1ncc2c([nH]c3ccccc32)c1=O`, the inhibition is reported as 18.5%.
`Cc1ccccc1OCC(=O)Nc1nnc(S(=O)(=O)N2CCCC2)s1` was tested, and the inhibition was -11.6%.
Work on `COc1ccc(OC)c(CNC(=O)c2ccc3nc(C(C)C)oc3c2)c1` yielded an inhibition of 17.4%.
Molecule `CCCc1ccc(S(=O)(=O)N2CCC(c3nnc(-c4cccc(C)c4)o3)CC2)cc1` has an inhibition of 6.07%.
For `COc1ccc(Cl)cc1C(=O)Nc1ccc2nc(Nc3cccc(Cl)c3)cc(C)c2c1`, the inhibition was -20.4%.
In the case of `CCOc1ccc(NC(=O)CN2C(=O)C(c3ccc(Cl)cc3)=NC2(C)C)cc1`, the inhibition is reported as 0.367%.
Work on `CCC(=O)N1CCc2cc(Br)cc(S(=O)(=O)N3CCCC(C(=O)Nc4cc(C)ccc4OC)C3)c21` (centres undefined) yielded an inhibition of -7.74%.
`O=C(NCc1ccc(Cl)cc1)C1=Cc2cc(Br)ccc2OC1` gave an inhibition of -16.4%.
Work on `CCn1c(=O)cc(OCC(=O)N(C)c2ccc(OC)cc2)c2ccccc21` yielded an inhibition of -5.05%.
`O=C(NCCCN1CCc2ccccc2C1)Nc1ccc(Br)cc1` was tested, and the inhibition was active: 30.7%.
`CC(C)c1ccc(C2=CC(c3cccc(Cl)c3)n3c(nc4ccccc43)N2)cc1` (centres undefined) gave an inhibition of 3.09%.
Work on `Cc1ccc(Cl)cc1N1CCN(C(=O)c2cc3ccc4cccnc4c3[nH]2)CC1` yielded an inhibition of 1.61%.
In the case of `COc1ccc(CCNC2CCC(c3ccccc3)CC2)cc1` (centres undefined), the inhibition is reported as active: 77.7%.
With `COc1ccc(C)cc1NC(=O)c1c2c(nc3ccccc13)C(=O)N(C1CCCCC1)C2` the inhibition was 13.7%.
In the case of `CCOc1ccc(Br)cc1C1C(C(=O)OC)=C(C)NC2=C1C(=O)c1ccccc12` (centres undefined), the inhibition is reported as 0.882%.
Work on `CCN(C(=O)CSc1ncc2c(n1)-c1cc(Cl)ccc1N(Cc1ccccc1)S2(=O)=O)c1cccc(C)c1` yielded an inhibition of 3.52%.
Work on `Cc1ccc(-c2cc3ncc(C(=O)c4cc(Cl)c(C)cc4O)cn3n2)cc1` yielded an inhibition of 2.64%.
Molecule `Cc1ccc(Cl)cc1NC(=O)C(Cc1ccccc1)NS(=O)(=O)c1cccc2nsnc12` (centres undefined) has an inhibition of 12.3%.
`CCc1c(C)sc2c1CCN(C(=O)Nc1ccccc1C(=O)OC)C2c1ccc(OC)cc1` (centres undefined) was tested, and the inhibition was 3.69%.
`COc1ccc(OC)c(C2Nc3c(C)cc(C)cc3-c3cc(C)nn32)c1` (centres undefined) showed an inhibition of 0.538%.
With `Cc1ccc(NS(=O)(=O)c2ccc3c(c2)CC(=O)N3)cc1Cl` the inhibition was 5.85%.
`Cc1ccc(C)c(S(=O)(=O)c2nnn3c2nc(Nc2ccc(C)c(C)c2)c2ccccc23)c1` was tested, and the inhibition was -18.2%.
In the case of `Cc1ccc(CCNC(=O)c2c[nH]c3ccc(S(=O)(=O)Nc4ccc(C)cc4C)cc3c2=O)cc1`, the inhibition is reported as 11.5%.
Molecule `COc1cccc(C(=O)NCC(c2ccc(N(C)C)cc2)N2CCc3ccccc32)c1` (centres undefined) has an inhibition of -5.92%.
`Cc1ccc(-n2nc3c([n+]2[O-])CCc2nonc2-3)cc1` was tested, and the inhibition was active: 52.9%.
`CC(=O)c1cccc(Nc2nc(-c3cccc(C)c3)nc3ccccc23)c1` showed an inhibition of 0.711%.
For `Cc1nn(-c2ccc(N3CCCCC3)nn2)c(C)c1CCC(=O)NCc1ccc(OC(C)C)cc1`, the inhibition was -4.61%.
In the case of `Cc1ccc(NC(=O)Cn2cc(S(=O)(=O)N3CCCC3)c(S(=O)(=O)N3CCCC3)c2)cc1F`, the inhibition is reported as -0.532%.
`Cc1ccccc1C(=O)Nc1ccc(OCc2cc(=O)n3ccccc3n2)cc1` gave an inhibition of 14.3%.
`S=C(Nc1ccc(Cl)c(Cl)c1)NC1CCN(Cc2ccccc2)CC1` was tested, and the inhibition was active: 45.2%.
Molecule `COC(=O)CCNC(=O)NC(CCC(C)C)c1c(-n2cccc2)sc2c1CCN(C)C2` (centres undefined) has an inhibition of 3.16%.
In the case of `CCN1c2ccccc2-c2nc(SCC(=O)NCc3ccccc3)ncc2S1(=O)=O`, the inhibition is reported as -3.36%.
With `Cc1ccccc1N1CCN(Cc2c[nH]c3ccccc23)CC1` the inhibition was active: 39.9%.
`COc1ccccc1-c1cc2nc(C)c(CCC(=O)O)c(C)n2n1` showed an inhibition of 0.0241%.
